Results: PubChem BioAssay AID596 (National Center for Advancing Translational Sciences (NCATS), 2007)
The campaign covered roughly 71,000 compounds. About 1,400 (2%) were called active. Inconclusive means that the source gave no clear call. Such entries were picked first, then a sample of the others. The call rests on the fitted dose curve; in most records, active means well fitted curve in the direction sought with a large enough effect; inconclusive means small, poorly fitted or top-dose-only effect; inactive means no such curve, though single readings can be large or run the other way. Where the call is inconclusive, the potency comes from a doubtful curve fit.
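Further: actives lower thioflavin S fluorescence by blocking filaments or displacing dye.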
Potency means the concentration at half of the fitted maximal effect.

Each compound was assayed against Microtubule-associated protein tau (Homo sapiens) (UniProt P10636) (assay: qHTS Assay for Tau Filament Binding). Details: recombinant tau filaments, thioflavin S fluorescence, 15 h, filaments grown with octadecylsulfate alongside compound; series mostly up to 57.1 µM.
Sequence of UniProt P10636 (P10636 whole entry, looked up): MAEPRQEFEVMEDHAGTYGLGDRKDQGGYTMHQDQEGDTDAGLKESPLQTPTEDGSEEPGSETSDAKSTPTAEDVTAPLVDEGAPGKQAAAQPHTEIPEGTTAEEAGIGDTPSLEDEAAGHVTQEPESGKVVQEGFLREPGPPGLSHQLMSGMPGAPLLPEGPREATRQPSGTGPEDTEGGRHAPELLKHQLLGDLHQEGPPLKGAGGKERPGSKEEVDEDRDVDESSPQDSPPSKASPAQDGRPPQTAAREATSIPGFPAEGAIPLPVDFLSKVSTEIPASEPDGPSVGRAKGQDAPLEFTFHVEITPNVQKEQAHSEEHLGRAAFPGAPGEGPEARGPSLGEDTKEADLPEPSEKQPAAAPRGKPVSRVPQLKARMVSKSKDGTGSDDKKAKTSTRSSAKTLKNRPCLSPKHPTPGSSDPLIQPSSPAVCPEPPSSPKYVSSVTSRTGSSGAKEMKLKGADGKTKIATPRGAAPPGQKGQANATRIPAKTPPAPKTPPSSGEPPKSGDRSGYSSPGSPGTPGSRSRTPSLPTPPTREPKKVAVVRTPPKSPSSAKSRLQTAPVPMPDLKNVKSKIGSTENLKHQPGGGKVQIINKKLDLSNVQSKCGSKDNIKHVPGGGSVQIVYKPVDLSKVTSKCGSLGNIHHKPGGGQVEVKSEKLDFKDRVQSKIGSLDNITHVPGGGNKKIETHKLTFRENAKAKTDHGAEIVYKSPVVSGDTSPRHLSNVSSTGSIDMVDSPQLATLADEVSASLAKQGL
In short: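 Recombinant tau protein (human, 1 uM final) plus 30 uM ODS in HEPES pH 7.4 with NaCl, DTT and thioflavine S. Compound present from the start; fluorescence at 510 nm after 15 h, 37 C.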
`O=C1CS/C(=N\C(=O)N2c3ccccc3Sc3ccccc32)N1` was tested, and the Potency was active: 3.16 µM. For `Cc1cc(C)c(S(=O)(=O)Nc2cccc(C(F)(F)F)c2)c(C)c1`, the Potency was inconclusive: 39.8 µM [decreasing]. `Nc1ccc(OCc2ccccc2)cc1` was tested, and the Potency was inconclusive: 31.6 µM [decreasing]. `COC(=O)c1c(C#N)c(N)nc2c1CCC2` was tested, and the Potency was “inactive”. With `O=c1c(-c2ccc(Cl)cc2)nc2cnc(N3CCNCC3)nc2n1Cc1cccs1` the Potency was active: 3.16 µM. `COc1ncc2nc(-c3cc(F)cc(F)c3)c(=O)n(C[C@H]3CCCO3)c2n1` was tested, and the Potency was inconclusive: 39.8 µM [decreasing]. `COc1ccc(N2CSC3=C(C#N)C(c4cc(OC)c(OC)cc4OC)CC(=O)N3C2)c(OC)c1` (stereo not drawn) was tested, and the Potency was inconclusive: 25.1 µM [decreasing]. In the case of `N=C(N)S[C@H]1c2ccccc2-c2cc([N+](=O)[O-])ccc21`, the Potency is reported as inconclusive: 2.51 µM [decreasing]. In the case of `COC(=O)c1ccc(NC(=O)c2ccc(CN3CCOCC3)cc2)cc1`, the Potency is reported as “inactive”. With `Cc1ccc(S(=O)(=O)Nn2c(C)ccc2C)cc1` the Potency was inconclusive: 39.8 µM [decreasing]. `CC(=O)Nc1ccc(S(=O)(=O)Nc2ccc(N3CCOCC3)cc2)cc1` was tested, and the Potency was “inactive”. `COc1ccc2c(=O)cc(-c3ccccc3)oc2c1O` was tested, and the Potency was inconclusive: 39.8 µM [decreasing]. For `CCC(C)(C)NC(=O)C(c1ccccc1F)N(Cc1ccco1)C(=O)c1csnn1` (stereo not drawn), the Potency was “inactive”. `CCOc1ccc(C(=O)c2ccc(OCC)c(N)c2)cc1N` was tested, and the Potency was inconclusive: 39.8 µM [decreasing]. `COc1ccc(-c2oc3cc(OC)c(OC(C)=O)c(OC)c3c(=O)c2OC)cc1OC(C)=O` was tested, and the Potency was inconclusive: 39.8 µM [decreasing]. For `COc1ncc2nc(-c3ccc(Cl)cc3)c(=O)n(C[C@H]3CCCO3)c2n1`, the Potency was inconclusive: 31.6 µM [decreasing]. For `CC(C)C(=O)N1CCN(c2ccccc2N)CC1`, the Potency was inconclusive: 31.6 µM [decreasing]. With `CCN(CCCNC(=O)CN(C)S(=O)(=O)c1cccc2nsnc12)c1ccccc1` the Potency was inconclusive: 20 µM [decreasing]. In the case of `O=C(c1cccc(F)c1)N1CCC2(CC1)CCN(c1ncccn1)CC2`, the Potency is reported as “inactive”. With `Cc1ccc(-c2nc3ncccn3c2NC2CCCC2)o1` the Potency was active: 12.6 µM. `O=C(O)C1=CCCN(CCON=C(c2ccccc2)c2ccccc2)C1` was tested, and the Potency was inconclusive: 39.8 µM [decreasing]. In the case of `O=C(NCCN1CCN(c2ccccc2)CC1)c1cccc(Br)c1`, the Potency is reported as inconclusive: 25.1 µM [decreasing]. With `COc1ccccc1-c1nc(Nc2ccncc2)c2ccccc2n1` the Potency was “inactive”.
